IC50 is the fitted dose that halves viability relative to control wells, and lower means more sensitive; where the fit passes the top or lowest dose, that dose stands as a limit. AUC, from the same fit, is the share of area under the viability curve across the 256-fold dose range: 1 means no effect, lower means more sensitive. The top dose, if marked as inferred, was calculated from the reported fits.
How the values were obtained:
Assay in all cases: Viability of human cancer cell lines after 72 h of drug (GDSC screen)
XMD14-99 = compound: COc1cc(N2CCN(C)CC2)ccc1Nc1nc(N)c(C(=O)c2c(Cl)cccc2Cl)s1 [XMD14-99]; conditions: top dose 10.24 µM; top dose inferred
Protocol: (§1)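 Human cancer cell lines in 384-well plates, medium with 10% serum, drug for 72 h over a 256-fold dose range (nine 2-fold or five 4-fold steps up to the top dose). Adherent lines were fixed and stained with the nucleic acid dye Syto60, suspension lines read with resazurin; signal relative to control wells, capped at 0 and 100%. One two-parameter sigmoid per drug and line, fitted in a mixed model over all curves with the slope shared within a line.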

AT-7519 = compound: O=C(NC1CCNCC1)c1n[nH]cc1NC(=O)c1c(Cl)cccc1Cl [AT-7519]; conditions: top dose 10.24 µM; top dose inferred
Protocol: as §1

FH535 = compound: Cc1cc([N+](=O)[O-])ccc1NS(=O)(=O)c1cc(Cl)ccc1Cl [FH535]; conditions: top dose 32 µM; top dose inferred
Protocol: as §1

Row | Cell Line | AUC (XMD14-99) | IC50 (XMD14-99) [µM] | AUC (AT-7519) | IC50 (AT-7519) [µM] | AUC (FH535) | IC50 (FH535) [µM]
1 | LN-229 (glioma, adherent) | 0.988 | > 10.2 | 0.961 | > 10.2 | 0.649 | 5.16
2 | Calu-3 (lung adenocarcinoma, adherent) | 0.983 | > 10.2 | 0.924 | > 10.2 | 0.561 | 3.07
3 | NCI-H596 (lung adenocarcinoma, adherent) | 0.982 | > 10.2 | 0.683 | 2.44 | 0.705 | 9.09
4 | Saos-2 (osteosarcoma, adherent) | 0.98 | > 10.2 | 0.966 | > 10.2 | 0.658 | 6.67
5 | HeLa (cervix, adherent) | 0.984 | > 10.2 | 0.891 | > 10.2 | 0.493 | 1.92
6 | CAKI-1 (kidney, adherent) | 0.966 | > 10.2 | 0.94 | > 10.2 | 0.689 | 8.9
7 | HDQ-P1 (breast, adherent) | 0.985 | > 10.2 | 0.904 | > 10.2 | 0.717 | 9.37
8 | HMV-II (melanoma, adherent) | 0.884 | > 10.2 | 0.809 | 6.84 | 0.514 | 2.2
9 | CAL-72 (osteosarcoma, adherent) | 0.984 | > 10.2 | 0.984 | > 10.2 | 0.71 | 8.84
10 | PL4 (pancreas, adherent) | 0.987 | > 10.2 | 0.852 | 8.33 | 0.766 | 12.1
11 | Hs-578-T (breast, adherent) | 0.987 | > 10.2 | 0.987 | > 10.2 | 0.706 | 7.92
12 | HCC-15 (lung squamous cell carcinoma, adherent) | 0.975 | > 10.2 | 0.843 | > 10.2 | 0.666 | 6.63
13 | H3255 (lung adenocarcinoma, adherent) | 0.982 | > 10.2 | 0.856 | > 10.2 | 0.715 | 9.27
14 | H3118 (head and neck, adherent) | 0.982 | > 10.2 | 0.414 | 0.365 | 0.62 | 4.42
15 | GP5d (large intestine, adherent) | 0.965 | > 10.2 | 0.697 | 2.13 | 0.385 | 1
16 | PC-3 [JPC-3] (lung adenocarcinoma, adherent) | 0.974 | > 10.2 | 0.64 | 1.78 | 0.636 | 5.37
17 | TT2609-C02 (thyroid, adherent) | 0.976 | > 10.2 | 0.67 | 1.97 | 0.562 | 2.99
18 | DoTc2-4510 (cervix, adherent) | 0.986 | > 10.2 | 0.733 | 2.83 | 0.463 | 1.6
19 | RMG-I (ovary, adherent) | 0.976 | > 10.2 | 0.745 | 3.7 | 0.728 | 10.1
20 | HCC70 (breast, adherent) | 0.985 | > 10.2 | 0.356 | 0.257 | 0.659 | 5.48
21 | CAL-12T (non-small cell lung carcinoma, adherent) | 0.952 | > 10.2 | 0.372 | 0.272 | 0.438 | 1.32
22 | SN12C (kidney, adherent) | 0.977 | > 10.2 | 0.964 | > 10.2 | 0.616 | 4.33
23 | KYSE-180 (oesophagus, adherent) | 0.988 | > 10.2 | 0.487 | 0.592 | 0.598 | 3.66
24 | SW1573 (lung adenocarcinoma, adherent) | 0.981 | > 10.2 | 0.877 | > 10.2 | 0.664 | 6.75
25 | A204 (rhabdomyosarcoma, adherent) | 0.978 | > 10.2 | 0.634 | 1.68 | 0.671 | 6.93
26 | MDA-MB-453 (breast, adherent) | 0.93 | > 10.2 | 0.736 | 3.3 | 0.72 | 9.09

Row | Cell Line | AUC (XMD14-99) | IC50 (XMD14-99) [µM] | AUC (AT-7519) | IC50 (AT-7519) [µM] | AUC (FH535) | IC50 (FH535) [µM]
27 | NY (osteosarcoma, adherent) | 0.986 | > 10.2 | 0.987 | > 10.2 | 0.619 | 4.23
28 | NCI-H1563 (lung adenocarcinoma, adherent) | 0.984 | > 10.2 | 0.623 | 1.49 | 0.758 | 13
29 | DMS-53 (small cell lung carcinoma, adherent) | 0.979 | > 10.2 | 0.988 | > 10.2 | 0.302 | 0.532
30 | NCI-H2227 (small cell lung carcinoma, semi-adherent) | 0.952 | > 10.2 | 0.578 | 1.08 | 0.737 | 10.5
31 | LoVo (large intestine, adherent) | 0.986 | > 10.2 | 0.964 | > 10.2 | 0.48 | 1.76
32 | HN (head and neck, adherent) | 0.988 | > 10.2 | 0.956 | > 10.2 | 0.909 | > 32
33 | MDA-MB-436 (breast, adherent) | 0.983 | > 10.2 | 0.961 | > 10.2 | 0.415 | 1.1
34 | NCI-H1299 (large cell lung carcinoma, adherent) | 0.982 | > 10.2 | 0.896 | > 10.2 | 0.553 | 2.88
35 | HuH-7 (liver, adherent) | 0.987 | > 10.2 | 0.933 | > 10.2 | 0.437 | 1.34
36 | BICR31 (head and neck, adherent) | 0.988 | > 10.2 | 0.788 | 4.55 | 0.659 | 5.57
37 | TCCSUP (bladder, adherent) | 0.985 | > 10.2 | 0.973 | > 10.2 | 0.62 | 4.5
38 | KMRC-1 (kidney, adherent) | 0.987 | > 10.2 | 0.982 | > 10.2 | 0.784 | 14.4
39 | NCI-H358 (lung adenocarcinoma, adherent) | 0.981 | > 10.2 | 0.459 | 0.488 | 0.678 | 6.7
40 | MDA-MB-231 (breast, adherent) | 0.982 | > 10.2 | 0.733 | 3.11 | 0.775 | 13.4
41 | FTC-133 (thyroid, adherent) | 0.979 | > 10.2 | 0.986 | > 10.2 | 0.648 | 5.38
42 | RERF-LC-Sq1 (lung squamous cell carcinoma, adherent) | 0.979 | > 10.2 | 0.762 | 5.43 | 0.927 | > 32
43 | MFE-280 (endometrium, adherent) | 0.982 | > 10.2 | 0.871 | > 10.2 | 0.526 | 2.4
44 | MOG-G-CCM (glioma, adherent) | 0.967 | > 10.2 | 0.872 | > 10.2 | 0.774 | 14.7
45 | EW-7 (Ewing sarcoma, semi-adherent) | 0.907 | > 10.2 | 0.449 | 0.473 | 0.777 | 11.3
46 | KYSE-220 (oesophagus, adherent) | 0.986 | > 10.2 | 0.669 | 1.95 | 0.779 | 13.8
47 | SW1463 (large intestine, adherent) | 0.974 | > 10.2 | 0.944 | > 10.2 | 0.589 | 4.16
48 | OE21 (oesophagus, adherent) | 0.978 | > 10.2 | 0.807 | 7.86 | 0.659 | 6.55
49 | HCC1954 (breast, adherent) | 0.946 | > 10.2 | 0.377 | 0.276 | 0.513 | 2.18
50 | KP-2 (pancreas, adherent) | 0.942 | > 10.2 | 0.502 | 0.65 | 0.544 | 2.65
51 | 42-MG-BA (glioma, adherent) | 0.985 | > 10.2 | 0.85 | 8.59 | 0.89 | > 32
52 | T47D (breast, adherent) | 0.962 | > 10.2 | 0.793 | 7.84 | 0.78 | 21.4

Row | Cell Line | AUC (XMD14-99) | IC50 (XMD14-99) [µM] | AUC (AT-7519) | IC50 (AT-7519) [µM] | AUC (FH535) | IC50 (FH535) [µM]
53 | SNU-387 (liver, adherent) | 0.971 | > 10.2 | 0.597 | 1.22 | 0.702 | 8.07
54 | SK-MES-1 (lung squamous cell carcinoma, adherent) | 0.954 | > 10.2 | 0.766 | 4.11 | 0.501 | 2.02
55 | Hep 3B2_1-7 (liver, adherent) | 0.982 | > 10.2 | 0.975 | > 10.2 | 0.445 | 1.41
56 | WM793B (melanoma, adherent) | 0.971 | > 10.2 | 0.498 | 0.633 | 0.705 | 8.08
57 | H2595 (mesothelioma, adherent) | 0.979 | > 10.2 | 0.781 | 6.12 | 0.863 | > 32
58 | GCT (soft tissue, adherent) | 0.989 | > 10.2 | 0.79 | 4.22 | 0.587 | 3.4
59 | OAW-42 (ovary, adherent) | 0.985 | > 10.2 | 0.855 | 9.25 | 0.537 | 2.54
60 | 639-V (bladder, adherent) | 0.99 | > 10.2 | 0.989 | > 10.2 | 0.485 | 1.83
61 | SISO (cervix, adherent) | 0.987 | > 10.2 | 0.785 | 4.19 | 0.531 | 2.42
62 | SK-MEL-3 (melanoma, adherent) | 0.862 | > 10.2 | 0.891 | > 10.2 | 0.648 | 5.49
63 | 8305C (thyroid, adherent) | 0.973 | > 10.2 | 0.838 | 10.2 | 0.582 | 3.59
64 | H2804 (mesothelioma, adherent) | 0.968 | > 10.2 | 0.842 | 8.25 | 0.74 | 10.5
65 | OSC-19 (head and neck, adherent) | 0.987 | > 10.2 | 0.61 | 1.3 | 0.791 | 15
66 | LS-180 (large intestine, adherent) | 0.976 | > 10.2 | 0.839 | 8.46 | 0.686 | 7.18
67 | SBC-3 (small cell lung carcinoma, adherent) | 0.822 | 5.28 | 0.213 | 0.102 | 0.288 | 0.538
68 | LC-1-sq (lung squamous cell carcinoma, adherent) | 0.981 | > 10.2 | 0.845 | 9.34 | 0.744 | 11.5
69 | 769-P (kidney, adherent) | 0.923 | > 10.2 | 0.674 | 2.06 | 0.637 | 4.95
70 | HCC1806 (breast, adherent) | 0.977 | > 10.2 | 0.567 | 0.959 | 0.841 | 19.6
71 | T98G (glioma, adherent) | 0.987 | > 10.2 | 0.889 | 10.2 | 0.721 | 8.01
72 | SW626 (ovary, adherent) | 0.962 | > 10.2 | 0.599 | 1.26 | 0.575 | 3.33
73 | CAL-62 (thyroid, adherent) | 0.988 | > 10.2 | 0.716 | 2.52 | 0.533 | 2.45
74 | NCI-H1734 (lung adenocarcinoma, adherent) | 0.982 | > 10.2 | 0.75 | 3.65 | 0.711 | 8.41
75 | SK-CO-1 (large intestine, adherent) | 0.989 | > 10.2 | 0.92 | > 10.2 | 0.787 | 13
76 | H2795 (mesothelioma, adherent) | 0.961 | > 10.2 | 0.787 | 4.38 | 0.43 | 1.29
